Data: PubChem BioAssay (Tox21)
The inconclusive results got no clear call from the source; some entries with a clear call stand among them for comparison. For some of these results: Where the call is inconclusive, the potency comes from a doubtful curve fit. The source made the active and inactive calls. Unless noted, calls come from the whole dose curve; as a rule, active = well fitted cell-killing curve with a large enough effect in the repeat runs; inconclusive = weak or mixed curves, or effect the other way; inactive = no such curve, though single readings can be large or run the other way.

Columns and labels:
[1] = target: Glucocorticoid receptor (Homo sapiens) (UniProt P04150); experiment: qHTS assay to identify small molecule antagonists of the glucocorticoid receptor (GR) signaling pathway (AID 720692; active = well fitted inhibition curve with a large enough effect in the signal ratio in the repeat runs, not every such curve was filed as active; inconclusive = weak or mixed curves, or effect the other way; inactive = no such curve, though single readings can be large or run the other way; the % refers to the signal ratio; note: potency is the fitted concentration of half-maximal effect; for activity change, negative = inhibition: % is set by controls: 0 for no effect and ±100 for the full control effect); conditions: GR-bla HeLa, beta-lactamase FRET ratio, dexamethasone-stimulated, 18 h; activity change, negative = inhibition: at 58.5 µM (top of the series) unless noted
Method in brief: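 Dexamethasone (5 nM final) stimulated a stably integrated GRE-beta-lactamase reporter in HeLa cells during 18 h co-incubation with compounds; signal was quantified as fluorescence intensity of B/G FRET substrate after 2 h.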

[2] = qHTS assay for identifying genotoxic compounds that show differential cytotoxicity against isogenic chicken DT40 cell lines with known DNA damage response pathways - Rev3 mutant cell line (AID 743014); conditions: chicken DT40 Rev3-/- viability, CellTiter-Glo, 40 h; activity, negative = cytotoxicity: at 68.4 µM (top of the series) unless noted; note: nearly all actives have a fitted effect of over 55% in size; note: potency is the fitted concentration of half-maximal effect; for activity, negative = cytotoxicity: % is set by controls: 0 for no effect and ±100 for the full control effect
[3] = qHTS assay for identifying genotoxic compounds that show differential cytotoxicity against isogenic chicken DT40 cell lines with known DNA damage response pathways - wild type cell line (AID 743012); conditions: DT40 wild type chicken cells viability, CellTiter-Glo, 40 h; activity change, negative = cytotoxicity: at 68.4 µM (top of the series) unless noted; note: potency is the fitted concentration of half-maximal effect; nearly all actives have a fitted effect of over 60% in size
Method in brief: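 Using parental DT40 (300 cells/well), compounds delivered in DMSO incubate 40 h at 37 C/5% CO2. CellTiter-Glo reagent then stands 30 min at room temperature, and luminescence gives cell viability.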

[4] = target: Androgen receptor (Homo sapiens) (UniProt P10275); experiment: qHTS assay to identify small molecule antagonists of the androgen receptor (AR) signaling pathway (AID 743035; active = well fitted inhibition curve with a large enough effect in the signal ratio in the repeat runs, not every such curve was filed as active; inconclusive = weak or mixed curves, or effect the other way; inactive = no such curve, though single readings can be large or run the other way; the % refers to the signal ratio; note: % is set by controls: 0 for no effect and ±100 for the full control effect); conditions: HEK293 AR-UAS-bla, R1881-stimulated, beta-lactamase FRET, 16 h; activity change, negative = inhibition: at 58.5 µM (top of the series) unless noted
Method in brief: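 Using qHTS, AR-UAS-bla GripTite HEK293 cells received compound, then R1881, and were cultured 16 h at 37C/5% CO2 before a 2 h room-temperature LiveBLAzer B/G FRET substrate step and fluorescence measurement.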
Tags give direction and shape of the fitted curve or compound fluorescence and quenching.

UniProt P10275, sequence (P10275 whole entry, looked up): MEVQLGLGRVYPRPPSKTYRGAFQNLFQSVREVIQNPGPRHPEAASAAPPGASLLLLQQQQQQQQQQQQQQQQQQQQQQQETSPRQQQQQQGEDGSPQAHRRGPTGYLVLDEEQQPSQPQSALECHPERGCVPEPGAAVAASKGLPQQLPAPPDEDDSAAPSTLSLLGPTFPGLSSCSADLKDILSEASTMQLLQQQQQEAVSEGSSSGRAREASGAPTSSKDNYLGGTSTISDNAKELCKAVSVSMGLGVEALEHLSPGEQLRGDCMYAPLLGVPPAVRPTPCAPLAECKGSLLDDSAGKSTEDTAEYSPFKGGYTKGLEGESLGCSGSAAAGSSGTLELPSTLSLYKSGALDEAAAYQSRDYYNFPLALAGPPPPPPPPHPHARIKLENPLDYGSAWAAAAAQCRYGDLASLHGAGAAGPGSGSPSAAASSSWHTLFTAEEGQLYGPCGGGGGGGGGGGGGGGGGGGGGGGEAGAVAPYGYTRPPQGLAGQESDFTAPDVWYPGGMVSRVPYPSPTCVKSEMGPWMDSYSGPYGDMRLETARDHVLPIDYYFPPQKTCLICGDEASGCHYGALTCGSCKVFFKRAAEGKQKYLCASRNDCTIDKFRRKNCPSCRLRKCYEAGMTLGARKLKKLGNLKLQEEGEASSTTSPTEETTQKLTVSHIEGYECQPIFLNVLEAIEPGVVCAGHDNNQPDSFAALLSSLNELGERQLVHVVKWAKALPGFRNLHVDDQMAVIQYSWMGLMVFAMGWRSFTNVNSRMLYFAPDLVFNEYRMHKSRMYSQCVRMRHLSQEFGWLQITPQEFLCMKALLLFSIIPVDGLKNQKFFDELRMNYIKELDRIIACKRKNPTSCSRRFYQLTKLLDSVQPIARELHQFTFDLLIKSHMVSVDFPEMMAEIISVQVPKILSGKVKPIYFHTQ
UniProt P04150, sequence (P04150 whole entry, looked up): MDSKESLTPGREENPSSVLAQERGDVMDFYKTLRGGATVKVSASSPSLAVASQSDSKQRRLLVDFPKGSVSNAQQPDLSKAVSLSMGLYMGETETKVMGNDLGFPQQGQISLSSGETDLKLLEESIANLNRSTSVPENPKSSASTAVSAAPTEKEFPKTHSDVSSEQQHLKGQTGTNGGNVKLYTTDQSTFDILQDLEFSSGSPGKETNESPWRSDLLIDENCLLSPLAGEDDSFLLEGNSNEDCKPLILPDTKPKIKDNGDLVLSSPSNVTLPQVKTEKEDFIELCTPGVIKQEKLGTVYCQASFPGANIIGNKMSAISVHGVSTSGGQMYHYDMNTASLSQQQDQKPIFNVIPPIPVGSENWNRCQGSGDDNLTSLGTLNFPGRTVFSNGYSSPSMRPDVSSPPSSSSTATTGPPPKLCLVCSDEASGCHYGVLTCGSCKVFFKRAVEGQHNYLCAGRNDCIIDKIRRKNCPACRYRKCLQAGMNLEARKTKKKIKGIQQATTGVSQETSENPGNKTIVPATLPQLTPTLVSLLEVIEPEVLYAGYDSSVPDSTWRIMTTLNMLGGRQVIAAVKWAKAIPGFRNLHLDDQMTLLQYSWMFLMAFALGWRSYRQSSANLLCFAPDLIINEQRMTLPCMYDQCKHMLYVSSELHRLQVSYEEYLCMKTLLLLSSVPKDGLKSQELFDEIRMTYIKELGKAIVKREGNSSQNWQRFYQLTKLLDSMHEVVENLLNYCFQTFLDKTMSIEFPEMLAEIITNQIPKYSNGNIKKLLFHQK

SMILES: CC(=O)Nc1ccc(OC(=O)c2ccccc2OC(C)=O)cc1
- activity change, negative = inhibition [1]: inconclusive: 18.4%
- Potency [2]: inconclusive: 33.5 µM [rising, partial curve, poor fit]

SMILES: CCOC(=O)C(C)Oc1ccc(Oc2nc3ccc(Cl)cc3o2)cc1 (centres undefined)
- activity change, negative = inhibition [1]: inconclusive: -36.7%
- Potency [3]: inconclusive: 68.6 µM [cytotoxic]
- activity change, negative = inhibition [4]: inconclusive: -28.7%

SMILES: CCCCCCOc1ccc(N)cc1
- Potency [1]: inconclusive: 11 µM [activator, full curve, poor fit]
- Potency [2]: active: 43.3 µM

SMILES: C[C@H]1C[C@H]2[C@@H]3CCC4=CC(=O)C=C[C@]4(C)[C@H]3C(=O)C[C@]2(C)[C@@]1(O)C(=O)CO
- Potency [1]: active: 2.13 µM
- Potency [2]: inconclusive: 13.3 µM [cytotoxic, partial curve, poor fit]

SMILES: CC/C=C/CCCCCCCCCCOC(C)=O
- Potency [1]: inactive
- Potency [2]: active: 43.3 µM

SMILES: CN(C)CCCNCCCN
- Potency [1]: inactive
- Potency [2]: inconclusive: 54.3 µM [cytotoxic, partial curve]

SMILES: COc1c(N2CCNC(C)C2)c(F)cc2c(=O)c(C(=O)O)cn(C3CC3)c12 (centres undefined)
- Potency [1]: inactive
- Potency [2]: inactive

SMILES: CC(C#N)(CCC(=O)O)N=NC(C)(C#N)CCC(=O)O (centres undefined)
- Potency [1]: inactive
- Potency [2]: inactive

SMILES: CCN1CC(CCN2CCOCC2)C(c2ccccc2)(c2ccccc2)C1=O (centres undefined)
- Potency [1]: inactive
- Potency [2]: inconclusive: 16.8 µM [rising, partial curve, poor fit]

SMILES: Nc1ccccc1[N+](=O)[O-]
- Potency [1]: inconclusive: 1.39 µM [activator, full curve, poor fit]
- Potency [2]: inactive

SMILES: O=C(O)c1cc(C(=O)O)c(C(=O)O)cc1C(=O)O
- Potency [1]: inactive
- Potency [3]: inconclusive: 27.3 µM [rising, partial curve, poor fit]
- Potency [4]: inactive

SMILES: O=C1c2cccc(O)c2C(=O)c2c(O)cc(CO)cc21
- Potency [1]: inconclusive: 61.6 µM [activator, partial curve, poor fit]
- Potency [2]: inconclusive: 27.3 µM [cytotoxic, single point]

SMILES: FC(F)OC(Cl)C(F)(F)F (centres undefined)
- activity change, negative = inhibition [1]: inconclusive: -4.58%
- Potency [2]: inconclusive: 29.8 µM [rising, partial curve, poor fit]

SMILES: CCOC(=O)C1=NN(c2ccccc2)C(=O)C1
- activity change, negative = inhibition [1]: inconclusive: 51.5%
- Potency [2]: inconclusive: 48.6 µM [cytotoxic, partial curve]

SMILES: CCCCCC(C)O (centres undefined)
- Potency [1]: inactive
- Potency [2]: inconclusive: 68.6 µM [cytotoxic, single point]

SMILES: C=CC(C)(O)CCCC(C)CCCC(C)CCCC(C)C (centres undefined)
- Potency [1]: inactive
- Potency [2]: inactive

SMILES: CCC(C)O (centres undefined)
- Potency [1]: inactive
- Potency [2]: inactive

SMILES: CC12CCC(CC1=O)C2(C)C (centres undefined)
- Potency [1]: inactive
- Potency [2]: inactive

SMILES: N#C/C(=C1\SCC(c2ccccc2Cl)S1)n1ccnc1 (centres undefined)
- activity change, negative = inhibition [1]: inconclusive: -2.83%
- Potency [3]: inconclusive: 23.7 µM [cytotoxic, partial curve]
- Potency [4]: inactive

SMILES: CC(=O)c1ccc2c(c1)CCCC2
- Potency [1]: inactive
- Potency [2]: inactive

SMILES: C=CCOC(=O)CCCCCC
- Potency [1]: inactive
- Potency [3]: inconclusive: 2.73 µM [rising, full curve, poor fit]
- Potency [4]: inactive

SMILES: Cc1ccccc1N=O
- Potency [1]: inactive
- Potency [2]: inconclusive: 70.3 µM [cytotoxic, single point]

SMILES: CCCCCCc1ccc(-c2ccc(C#N)cc2)cc1
- activity change, negative = inhibition [1]: inconclusive: -0.905%
- Potency [2]: inconclusive: 60.1 µM [cytotoxic, partial curve, poor fit]

SMILES: O=C1NCCN1
- Potency [1]: inactive
- Potency [2]: inconclusive: 65.7 µM [cytotoxic, partial curve, poor fit]

SMILES: NC[C@H]1O[C@H](O[C@H]2[C@H](O)[C@@H](O[C@H]3O[C@H](CO)[C@@H](O)[C@H](N)[C@H]3O)[C@H](N)C[C@@H]2N)[C@H](O)[C@@H](O)[C@@H]1O
- activity change, negative = inhibition [1]: inconclusive: -24.1% [at 7.04 µM]
- Potency [2]: inconclusive: 3.77 µM [cytotoxic, single point]

SMILES: O=c1cc(CO)occ1O
- Potency [1]: inactive
- Potency [2]: inconclusive: 13.3 µM [rising, partial curve, poor fit]

SMILES: CCCCCCCCCCCCCCC1CO1 (centres undefined)
- Potency [1]: inactive
- Potency [2]: inactive

SMILES: C=C(C)C1CC=C(C)C(O)C1 (centres undefined)
- activity change, negative = inhibition [1]: inconclusive: 19.6% [at 78.9 µM]
- Potency [2]: inactive

SMILES: CCn1ccnc1CC1COc2ccccc2O1 (centres undefined)
- activity change, negative = inhibition [1]: inconclusive: -3.79%
- Potency [2]: inactive

SMILES: COc1ccccc1OCC(O)COC(N)=O (centres undefined)
- activity change, negative = inhibition [1]: inconclusive: 11.6% [at 27 µM]
- Potency [2]: inactive
